From patent US11178870B2 (priority 2017, dated 2021)

Experiments:
Type in all cases: in vivo
Botrytis cinerea = experiment: Test Example B: Gray mold on tomato; settings: Gray mold on tomato
Puccinia recondita = experiment: Test Example E: Brown rust on wheat; settings: Brown rust on wheat
Alternaia brassicicola = experiment: Test Example C: Alternaria sooty spot on cabbage; settings: Alternaria sooty spot on cabbage
Plasmopara viticola = experiment: Test Example G: Downy mildew on vine; settings: Downy mildew on vine; 250 ppm sprayed, 2.5 ml/pot; 7 to 10 days after inoculation
[1] = system: Blumeria graminis f. sp. hordei; experiment: Test Example D: Powdery mildew on barley; settings: Powdery mildew on barley

Structure (SMILES) | Test B control value (Botrytis cinerea) | Test E control value (Puccinia recondita) | Test C control value (Alternaia brassicicola) | Test G control value (Plasmopara viticola) | Test D control value [1]
CCn1c(-c2c(F)cc(F)cc2F)c(-c2ocnc2Br)cc(Cl)c1=O [Compound 113] | H (H shows the control value more than 50%) | H (H shows the control value more than 50%) | H (H shows the control value more than 50%) | L (L shows the control value of 50% or less) | H (H shows the control value more than 50%)
CCn1c(-c2c(F)cc(OC)cc2F)c(-c2oc(Cl)nc2Cl)cc(Cl)c1=O [Compound 114] | H (H shows the control value more than 50%) | H (H shows the control value more than 50%) | H (H shows the control value more than 50%) | L (L shows the control value of 50% or less) | L (L shows the control value of 50% or less)
CCn1c(-c2c(F)cc(OC)cc2F)c(-c2ocnc2Cl)cc(Cl)c1=O [Compound 115] | H (H shows the control value more than 50%) | H (H shows the control value more than 50%) | H (H shows the control value more than 50%) | H (H shows the control value more than 50%) | L (L shows the control value of 50% or less)
CCn1c(-c2c(F)cc(OC)cc2F)c(-c2oc(Br)nc2Br)cc(Cl)c1=O [Compound 116] | H (H shows the control value more than 50%) | H (H shows the control value more than 50%) | H (H shows the control value more than 50%) | H (H shows the control value more than 50%) | L (L shows the control value of 50% or less)
CCn1c(-c2c(F)cc(F)cc2F)c(-n2nc(C)c(Br)c2C)cc(Br)c1=O [Compound 117] | L (L shows the control value of 50% or less) | L (L shows the control value of 50% or less) | H (H shows the control value more than 50%) | L (L shows the control value of 50% or less) | L (L shows the control value of 50% or less)
CCn1c(-c2c(F)cc(OC)cc2F)c(-c2ocnc2Br)cc(Cl)c1=O [Compound 118] | H (H shows the control value more than 50%) | H (H shows the control value more than 50%) | H (H shows the control value more than 50%) | H (H shows the control value more than 50%) | H (H shows the control value more than 50%)
CCn1c(-c2c(F)cc(NC)cc2F)c(-c2cnco2)cc(Cl)c1=O [Compound 119] | L (L shows the control value of 50% or less) | L (L shows the control value of 50% or less) | H (H shows the control value more than 50%) | L (L shows the control value of 50% or less) | L (L shows the control value of 50% or less)
CCn1c(-c2c(F)cc(F)cc2F)c(-c2ocnc2F)cc(Cl)c1=O [Compound 120] | H (H shows the control value more than 50%) | H (H shows the control value more than 50%) | H (H shows the control value more than 50%) | L (L shows the control value of 50% or less) | L (L shows the control value of 50% or less)
O=c1c(Cl)cc(-n2cc(Cl)cn2)c(-c2c(F)cc(F)cc2F)n1CC(F)(F)F [Compound 121] | L (L shows the control value of 50% or less) | L (L shows the control value of 50% or less) | L (L shows the control value of 50% or less) | L (L shows the control value of 50% or less) | L (L shows the control value of 50% or less)
COc1cc(F)c(-c2c(-n3cc(Cl)cn3)cc(Cl)c(=O)n2CC(F)(F)F)c(F)c1 [Compound 122] | H (H shows the control value more than 50%) | H (H shows the control value more than 50%) | H (H shows the control value more than 50%) | L (L shows the control value of 50% or less) | H (H shows the control value more than 50%)
CCn1c(-c2c(F)cc(F)cc2F)c(-n2cc(C=O)cn2)cc(Cl)c1=O [Compound 123] | H (H shows the control value more than 50%) | L (L shows the control value of 50% or less) | H (H shows the control value more than 50%) | L (L shows the control value of 50% or less) | L (L shows the control value of 50% or less)
CCn1c(-c2c(F)cc(F)cc2F)c(-n2cc(C(F)F)cn2)cc(Cl)c1=O [Compound 124] | H (H shows the control value more than 50%) | L (L shows the control value of 50% or less) | H (H shows the control value more than 50%) | L (L shows the control value of 50% or less) | L (L shows the control value of 50% or less)
CCn1c(-c2c(F)cc(F)cc2F)c(-n2c(C)ccc2C)cc(Cl)c1=O [Compound 125] | H (H shows the control value more than 50%) | H (H shows the control value more than 50%) | H (H shows the control value more than 50%) | L (L shows the control value of 50% or less) | L (L shows the control value of 50% or less)
CCn1c(-c2c(F)cc(OC)cc2F)c(-n2c(C)ccc2C)cc(Cl)c1=O [Compound 126] | H (H shows the control value more than 50%) | H (H shows the control value more than 50%) | H (H shows the control value more than 50%) | L (L shows the control value of 50% or less) | L (L shows the control value of 50% or less)
CCn1c(-c2c(F)cc(OC)cc2F)c(-c2ocnc2F)cc(Cl)c1=O [Compound 127] | H (H shows the control value more than 50%) | H (H shows the control value more than 50%) | H (H shows the control value more than 50%) | L (L shows the control value of 50% or less) | H (H shows the control value more than 50%)
CCn1c(-c2c(F)cc(F)cc2F)c(-n2cc(OC)cn2)cc(Cl)c1=O [Compound 128] | L (L shows the control value of 50% or less) | H (H shows the control value more than 50%) | H (H shows the control value more than 50%) | H (H shows the control value more than 50%) | H (H shows the control value more than 50%)
CCOC(=O)c1cncn1-c1cc(Cl)c(=O)n(CC)c1-c1c(F)cc(F)cc1F [Compound 129] | L (L shows the control value of 50% or less) | L (L shows the control value of 50% or less) | H (H shows the control value more than 50%) | H (H shows the control value more than 50%) | L (L shows the control value of 50% or less)
CCn1c(-c2c(F)cccc2F)c(-c2cnc(OC)o2)cc(Cl)c1=O [Compound 130] | L (L shows the control value of 50% or less) | L (L shows the control value of 50% or less) | H (H shows the control value more than 50%) | L (L shows the control value of 50% or less) | L (L shows the control value of 50% or less)
CCn1c(-c2c(F)cccc2F)c(-c2cnc(N(C)C)o2)cc(Cl)c1=O [Compound 131] | L (L shows the control value of 50% or less) | L (L shows the control value of 50% or less) | H (H shows the control value more than 50%) | L (L shows the control value of 50% or less) | L (L shows the control value of 50% or less)
CCn1c(-c2c(F)cc(F)cc2F)c(-n2cccc2)cc(Cl)c1=O [Compound 132] | H (H shows the control value more than 50%) | H (H shows the control value more than 50%) | H (H shows the control value more than 50%) | H (H shows the control value more than 50%) | H (H shows the control value more than 50%)
